In all, about 81,000 sequences were measured (“one-hybrid fitness for binding parS DNA”: median about -0.17, highest 2% from about 0.51 on). The list shows a part of the results.
B1: Caulobacter ParB omega fusion; a variant is named by its letters at X, in order, B8GW30 (parent)
chain: MESVVVGEPGMSEGRRGLGRGLSALLGEVDAAPAQAPGEQLGGSREAPIEILQRNPDQPRRTFREEDLEDLSNSIREKGVLQPILVRPSPDTAGEYQIVAGERAWRAAQRAGLKTVPIMVRELDDLAVLEIGIIENVQRADLNVLEEALSYKVLMEKFERTQENIAQTIGKSXSHVANXMRLLXLPDEVQSYLVSGELTAXHARAIAAAADPVALAKQIIEGGLSVRETEALARKAPNLSAGKSKGGRPPRVKDTDTQALESDLSSVLGLDVSIDHRGSTGTLTITYATLEQLDDLCNRLTRGI

Variants of: B1
Assay: one-hybrid fitness for binding parS DNA (scaled: cognate 1, non-cognate 0); higher = stronger binding
Details: with parS DNA site
Summary of the method: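 Bacterial one-hybrid selection in E. coli USO rpoZ- hisB- pyrF- with a HIS3 reporter carrying the site 19 bp from the promoter, screening Caulobacter ParB libraries with four specificity codons randomised (NNS). Cells grew 48 hours at 37°C on M9-minus-histidine plus 0.1 mM IPTG and 5 mM 3-AT. Plasmids before and after selection were Illumina-sequenced, three replicate libraries pooled, and variants under 10 reads dropped. Fitness is the log change in variant-to-wild-type read ratio, rescaled to cognate 1, non-cognate 0.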

one-hybrid fitness for binding parS DNA, ≤ 0.2:
KKKA
DNPT
RIVI
KPKH
VSVW
IPWG
QFRW
KLAL
FARH
CNKA
VKKC
DSSS
AINL
QLRQ
KGTT
CNLW
VPHT
YMHG
FESV
RSPQ
THNM
MFPR
IAQC
QLEL
PPCM
NSMD
PDRA
RARR
SYIR
TWTN
PEKC
PDQD
CRID
AIWG
MAPF
VEKK
QVNM
PIRT
DFNY
NIVS
EVKC
WVVS
NPFS
RDYC
NRLI
MIYY
RLEQ
VSEM
TWPS
MYTT
VPQT
ELGN
QGPK
CKTS
QFSF
AYCL
ELEV
AELD
RFFF
PMAK
AGQI
QNNE
KSWC
PITP
FQCR
NEKG
LFCV
FLIY
VPEQ
HCTQ
PEVV
ETQY
FDLR
ESSY
QCCF
NWPM
EAAC
DIAW
VLPL
ARKG
GKDG
DLIG
YPVR
VPLH
PDRV
CPVC
KVCE
FPYT
KTTT
VPWG
QRMD
RNRI
KKDL
ATGT
KLMY
RPPY
CGGA
WLAS
LRCC
MAPI
THHI
MIAG
NVTK
QCLK
KEGL
HGWG
QFAG
LYVT
QTQW
LNLV
IHDR
DNAG
TYTF
RSLQ
TEAT
KDKY
DKGL
PGQY
AENE
ETPY
PVAT
WQQT
LVSD
HLMY
KKGR
AQSR
TRYK
TYIT
DEVS
AENR
ISKA
HTSF
NWSV
EFHC
QRIE
PTDN
LPCL
QMCY
HHMG
QYLY
LVHQ
NVIS
WKDP
HAKR
SFAA
VSTM
TNLN
SGSH
AASP
DPQQ
SRYM
LHWR
YNND
VLIA
FRSG
SNLF
FEDA
FSYT
DYWR
AAGD
CHLM
CERF
HLTD
GVIL
IAKS
IVVS
CVAC
FLAP
QWAC
QCNW
IYEV
MLVW
RGLR
QFNT
LQTL
KAHC
PSRN
VQWC
RGTK
LGWM
ISGC
HPVV
MDTV
PAWV
QDDR
DEMS
FHER
RMCD

one-hybrid fitness for binding parS DNA, 0.437:
RTDY

one-hybrid fitness for binding parS DNA, 0.295:
RREY

one-hybrid fitness for binding parS DNA, 0.318:
RAMM

one-hybrid fitness for binding parS DNA, 0.225:
RVAH

one-hybrid fitness for binding parS DNA, 0.4:
RKQY

one-hybrid fitness for binding parS DNA, 0.287:
RWMA

one-hybrid fitness for binding parS DNA, 1:
RAQG

Reference: a collection of fitness landscapes (doi:10.1016/j.celrep.2020.107928)
